Results on two substances are retold here after publication PMC7795115.

Sequences of proteins named here, by UniProt entry; tags and fusion partners are left off.
UniProt P40763: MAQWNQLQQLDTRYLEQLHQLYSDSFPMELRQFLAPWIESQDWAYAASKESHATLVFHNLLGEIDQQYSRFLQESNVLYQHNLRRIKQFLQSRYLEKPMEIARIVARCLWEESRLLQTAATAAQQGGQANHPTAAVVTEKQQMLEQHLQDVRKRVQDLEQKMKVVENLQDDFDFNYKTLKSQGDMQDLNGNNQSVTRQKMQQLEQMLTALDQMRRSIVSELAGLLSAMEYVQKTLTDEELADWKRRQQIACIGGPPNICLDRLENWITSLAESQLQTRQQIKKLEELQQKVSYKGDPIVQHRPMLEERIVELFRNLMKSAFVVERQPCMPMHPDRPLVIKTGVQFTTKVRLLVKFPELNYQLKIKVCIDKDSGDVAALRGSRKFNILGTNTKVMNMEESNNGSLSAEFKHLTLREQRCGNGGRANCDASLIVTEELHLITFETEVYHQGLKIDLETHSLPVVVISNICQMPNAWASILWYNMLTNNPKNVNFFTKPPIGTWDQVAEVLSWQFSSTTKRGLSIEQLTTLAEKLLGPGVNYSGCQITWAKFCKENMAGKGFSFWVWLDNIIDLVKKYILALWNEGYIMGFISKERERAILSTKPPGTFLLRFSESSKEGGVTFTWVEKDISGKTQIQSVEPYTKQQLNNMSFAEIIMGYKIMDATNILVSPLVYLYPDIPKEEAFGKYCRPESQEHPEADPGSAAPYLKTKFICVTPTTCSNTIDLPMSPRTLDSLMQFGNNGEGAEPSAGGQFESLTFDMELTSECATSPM

The target of assay [1] is T1, α subunit of the inhibitor of the κB kinase (IKK) complex, IKKα, endogenous (human (endogenous in H-Ras MCF-10A and MDA-MB-231)) (UniProt O15111).
T1 sequence: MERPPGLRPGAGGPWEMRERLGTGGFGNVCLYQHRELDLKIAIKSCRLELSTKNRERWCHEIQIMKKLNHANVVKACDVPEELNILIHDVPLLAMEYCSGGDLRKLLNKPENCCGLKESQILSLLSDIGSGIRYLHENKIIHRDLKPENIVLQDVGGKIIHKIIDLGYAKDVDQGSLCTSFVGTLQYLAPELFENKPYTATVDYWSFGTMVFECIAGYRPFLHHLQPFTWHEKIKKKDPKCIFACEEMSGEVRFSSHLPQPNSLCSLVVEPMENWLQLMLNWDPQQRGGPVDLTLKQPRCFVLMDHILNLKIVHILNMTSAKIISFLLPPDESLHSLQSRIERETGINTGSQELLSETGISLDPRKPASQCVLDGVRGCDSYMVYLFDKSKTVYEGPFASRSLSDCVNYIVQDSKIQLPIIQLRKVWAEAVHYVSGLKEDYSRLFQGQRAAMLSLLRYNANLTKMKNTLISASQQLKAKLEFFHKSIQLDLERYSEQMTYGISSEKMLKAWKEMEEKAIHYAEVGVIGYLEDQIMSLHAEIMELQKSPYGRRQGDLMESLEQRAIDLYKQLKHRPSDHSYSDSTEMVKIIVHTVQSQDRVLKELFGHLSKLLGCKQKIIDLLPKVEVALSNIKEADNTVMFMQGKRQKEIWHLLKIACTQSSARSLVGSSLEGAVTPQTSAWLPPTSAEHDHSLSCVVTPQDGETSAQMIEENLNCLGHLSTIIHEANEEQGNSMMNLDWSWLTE
Description: proximity ligation; Duolink in situ PLA on fixed, permeabilised H-Ras MCF-10A and MDA-MB-231 cells with anti-STAT3 and anti-IKKα; endogenous proteins.

For assay [2], the target named is T1, α subunit of the inhibitor of the κB kinase (IKK) complex, IKKα, endogenous (human (endogenous in H-Ras MCF-10A and MDA-MB-231)). Description: co-IP; endogenous proteins in H-Ras MCF-10A lysate; immunoprecipitation with IKKα or STAT3 antibody at 4 °C overnight, protein A/G beads, immunoblot for the other protein; IgG as negative control.
Assay [3] deals with T2, IKKα wild type, ectopically expressed from pcDNA3-IKKa WT (UniProt O15111).
T2 sequence: T1 sequence
Briefly: proximity ligation; Duolink PLA in HEK293T cells transfected with STAT3 and IKKα WT or K44A.

For assay [4], the target named is T3, IKKα K44A mutant, ectopically expressed from pcDNA3-IKKa mutant (K44A) (UniProt O15111).
T3 sequence: T1 sequence with K44A
The description is as above.

The target of assay [5] is T2, IKKα wild type, ectopically expressed from pcDNA3-IKKa WT. Description: co-IP; cells (HEK293T, MCF-10A, H-Ras MCF-10A) transfected with pCMV-HA-STAT3 plus pcDNA3-IKKa WT or K44A for 48 h; for WT against K44A followed by MG132 for 2 h; immunoprecipitation with IKKα or STAT3 antibodies, immunoblot. For orientation: Immunoblotting shows a protein as a band on a membrane.

In assay [6] the target is T3, IKKα K44A mutant, ectopically expressed from pcDNA3-IKKa mutant (K44A). The description is as above.

Substitutions are numbered along the chain they refer to. No constants are given. Whether binding was seen depends on the method and setting. In cells and extracts the contact can be indirect. Some entries that bind do so weakly or less than the wild type.

On to “Signal transducer and activator of transcription 3 (STAT3), endogenous (from UniProt P40763 1-770)”, for which the binding result in assay [1] and in assay [2] was “binds” in each case.
With “STAT3, ectopically expressed from pCMV-HA-STAT3 (from UniProt P40763 1-770)”, the binding entry in assay [3] was “binds”; in assay [4] it was “no binding”; in assay [5], “binds”; in assay [6], “no binding”.
